{"source": "PubChem BioAssay AID686979", "about": "(National Center for Advancing Translational Sciences (NCATS), 2013)", "note": "Several values for one entry are separate records, joined by “and”; a condition that tells them apart may be missing. Identical values can stand only once. Screen size: about 420,000 compounds; about 50,000 (12%) were called active. Inconclusive results, whose numbers are uncertain, are shown with a selection of clear calls. Calls follow the shape of the dose curve; as a rule, active = well fitted inhibition curve with a large enough effect; inconclusive = small, poorly fitted or top-dose-only effect; inactive = flat fitted curve, though single readings scatter. Potencies of inconclusive entries are doubtful fits and often do not repeat. % is scaled to controls: 0 for no effect and ±100 for the full control effect; potency is read from the fitted curve at half-maximal effect; tags tell the direction and shape of the fitted curve.", "data": [{"experiment": "qHTS for Inhibitors of human tyrosyl-DNA phosphodiesterase 1 (TDP1): qHTS in cells in presence of CPT; also: nearly all actives have a fitted effect of over 55% in size", "settings": "chicken DT40 Tdp1-/-;hTDP1 cells + 20 nM CPT, ATP luminescence, 48 h; activity change, negative = growth inhibition: at 46.2 µM (top of the series)", "method_in_brief": "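Chicken DT40 Tdp1-/- cells stably complemented with human TDP1 were seeded at 400 cells/well in medium containing 20 nM camptothecin, exposed to pin-transferred compounds, and grown at 37 °C for at least 48 hr. Viability was read as ATP luminescence.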", "values": [{"smiles": "CCn1nc(NC(=O)CC(C)C)c2cc3ccc(C)cc3nc21", "Potency": "active: 29.1 µM"}, {"smiles": "COc1ccc(C2c3c(oc4ccc(Cl)cc4c3=O)C(=O)N2CCN2CCOCC2)cc1", "note": "(centres undefined)", "activity change, negative = growth inhibition": "inactive: 12.9%"}, {"smiles": "Cc1cccc(NC(=O)N(Cc2cc3cc(C)cc(C)c3[nH]c2=O)CC2COCCO2)c1", "note": "(centres undefined)", "Potency": "inconclusive: 20.6 µM [inhibitor, partial curve]"}, {"smiles": "Cn1c(CCN2CCCC2)nc2cc(NS(=O)(=O)c3ccc(F)cc3)ccc21", "Potency": "inconclusive: 29.1 µM [inhibitor, single point]"}, {"smiles": "COC(=O)c1cn(C(=O)c2cc(Br)ccc2Cl)c2ccccc12", "Potency": "inconclusive: 29.1 µM [inhibitor, single point]"}, {"smiles": "Cc1ccc(CNc2ncnc3cc(Cl)ccc23)cc1", "Potency": "active: 25.9 µM"}, {"smiles": "CC(=O)Nc1ccc(S(=O)(=O)N(C)CC(=O)OCC(=O)N2CCc3ccccc32)cc1", "Potency": "inconclusive: 23.1 µM [inhibitor, partial curve, poor fit]"}, {"smiles": "Cc1nc(C)c(C(=O)NCc2ccc(Cl)cc2)o1", "Potency": "inconclusive: 18.4 µM [inhibitor, single point]"}, {"smiles": "O=C(Nc1ccccc1)N1CCN(C2c3ccccc3-c3ccccc32)CC1", "Potency": "inconclusive: 29.1 µM [inhibitor, single point]"}, {"smiles": "Cc1noc(C)c1C(=O)NCc1ccccc1F", "activity change, negative = growth inhibition": "inactive: -0.656%"}, {"smiles": "COc1cc(C=CC(=O)OCC=Cc2ccc3c(c2)OCO3)cc(OC)c1OC", "Potency": "inconclusive: 23.1 µM [inhibitor, single point]"}, {"smiles": "COc1cc(C(=O)NCC(C)(C)CNC(=O)c2cc(OC)c(OC)c(OC)c2)cc(OC)c1OC", "activity change, negative = growth inhibition": "inactive: -0.16%"}, {"smiles": "O=C(NC(=S)Nc1ccc2c(c1)OCO2)c1ccc(Cl)cc1", "Potency": "inconclusive: 23.1 µM [inhibitor, single point]"}, {"smiles": "CCOP(=O)(/C(C#N)=C(\\C)O)c1ccccc1", "note": "(centres undefined)", "activity change, negative = growth inhibition": "inactive: -21.1%"}, {"smiles": "COc1cccc(C2=NN(C(=O)c3ccco3)C(c3ccco3)C2)c1", "note": "(centres undefined)", "Potency": "inconclusive: 23.1 µM [inhibitor, single point]"}, {"smiles": "COc1ccc(C2C(=O)N(C3CCC(C)CC3)CC(=O)N2CCc2ccccc2)cc1OC", "note": "(centres undefined)", "Potency": "inconclusive: 20.6 µM [inhibitor, single point]"}, {"smiles": "CC1=C(c2ccccc2)C(O)(c2ccccc2)C(C)C1=O", "note": "(centres undefined)", "Potency": "active: 16.4 µM"}, {"smiles": "CCOC(=O)c1sc(N2N=C(C)/C(=C\\c3ccc(OCC(=O)OC)cc3)C2=O)nc1C", "activity change, negative = growth inhibition": "inactive: -6.88%"}, {"smiles": "Cc1ccc(-n2nc3c(=O)n(CCCC(=O)NCc4ccccc4Cl)nc(C)c3c2C)cc1", "Potency": "inconclusive: 29.1 µM [inhibitor, single point]"}, {"smiles": "CCOCCCNC(=O)Cn1cc2c(n1)CCCC2", "activity change, negative = growth inhibition": "inconclusive: -30.2% [inhibitor]"}, {"smiles": "O=C1c2ccccc2-n2c1nc1ccccc1c2=O", "Potency": "active: 517 nM and active: 1.3 µM"}, {"smiles": "Cc1cc(N2CCCCC2)nc2ccc(NC(=O)c3cccc(F)c3)cc12", "Potency": "active: 7.31 µM"}, {"smiles": "COc1ccc(CC(N)c2csc(NC(=O)Nc3ccccc3-c3ccccc3)n2)cc1", "note": "(centres undefined)", "Potency": "inconclusive: 23.1 µM [inhibitor, single point]"}, {"smiles": "O=C1CN(C(=O)Cn2ncc(Cl)c(Cl)c2=O)c2ccccc2N1", "Potency": "active: 7.31 µM"}, {"smiles": "CCNc1nc(Cl)nc(NCc2ccccc2)n1", "activity change, negative = growth inhibition": "inactive: -28.6%"}, {"smiles": "C[C@@]12C(=O)N(c3cccc(F)c3)C(=O)N1[C@H](c1ccc(Cl)cc1)[C@@H]1C(=O)N(C3CCCCC3)C(=O)[C@@H]12", "Potency": "inconclusive: 29.1 µM [inhibitor, single point]"}, {"smiles": "CC(=O)Nc1ccc(NC(=O)C(C)OC(=O)c2ccc3[nH]c(C)c(C)c3c2)cc1", "note": "(centres undefined)", "activity change, negative = growth inhibition": "inactive: 4.34%"}, {"smiles": "CN[C@H]1C[C@H]2c3cc(-c4ccccc4)ccc3CCN2C(=O)[C@H]1[C@H](C)O", "Potency": "inconclusive: 29.1 µM [inhibitor, single point]"}, {"smiles": "CCN(CC)CC(=O)NN=C(c1ccccc1)c1ccccc1", "Potency": "inconclusive: 29.1 µM [inhibitor, single point]"}, {"smiles": "COC(=O)c1cc2occc2n1CC(=O)N(C)C1CCCCC1", "Potency": "inconclusive: 25.9 µM [inhibitor, single point]"}, {"smiles": "CCc1ccc2nc(N(CCN(C)C)C(=O)c3ccc4ccccc4c3)sc2c1", "Potency": "inconclusive: 20.6 µM [inhibitor, single point]"}, {"smiles": "Cn1c(SCC(=O)c2ccccc2)ncc(C(=O)Nc2ccccc2)c1=O", "Potency": "inconclusive: 18.4 µM [inhibitor, single point]"}, {"smiles": "O=C(/C=C/[C@H]1O[C@@H](n2cnc3c(NC(=O)c4ccccc4)ncnc32)[C@H](O)[C@@H]1O)NCCCN1CCCC1=O", "activity change, negative = growth inhibition": "inactive: 0.0938%"}, {"smiles": "Cc1ccc(C(=O)N2CCc3cc(CNC(=O)COc4ccccc4)ccc32)cc1", "Potency": "active: 13 µM"}, {"smiles": "Cc1ccccc1-c1cccc([C@@H]2C[C@H]3[C@H](CON3C)CN2C(=O)C(C)(C)C)c1", "activity change, negative = growth inhibition": "inactive: -26.6%"}, {"smiles": "CCNC(=O)Nc1ccc(S(=O)(=O)Nc2cnc(C)nc2C)cc1", "activity change, negative = growth inhibition": "inactive: -2.56%"}, {"smiles": "Cc1ccc(NC(=O)c2c(-c3ccccc3)noc2C)nc1", "Potency": "inconclusive: 29.1 µM [inhibitor, single point]"}, {"smiles": "CC(C)C1C(=O)N(Cc2cn(CCC3OCCO3)nn2)CCS(=O)(=O)N1Cc1ccc(-c2ccc(F)cc2Cl)cc1", "note": "(centres undefined)", "Potency": "inconclusive: 16.4 µM [inhibitor, single point]"}, {"smiles": "COc1cccc(-c2nn(-c3ccc(C)cc3)cc2C(=O)NCC(c2cccs2)N2CCOCC2)c1", "note": "(centres undefined)", "Potency": "inconclusive: 25.9 µM [inhibitor, single point]"}, {"smiles": "O=[N+]([O-])c1ccc2c(c1)CNc1ccccc1O2", "activity change, negative = growth inhibition": "inactive: -5.86%"}, {"smiles": "O[C@H]1CN(CC2CCCCC2)[C@@H](c2ccc(Cl)cc2)C[C@@H]1n1cc(-c2ccc(F)cc2)nn1", "Potency": "inconclusive: 18.4 µM [inhibitor, single point]"}, {"smiles": "NC(=O)c1ccc(NC(=O)COc2ccc([N+](=O)[O-])cc2Cl)cc1", "activity change, negative = growth inhibition": "inactive: -21.8%"}, {"smiles": "CN(C)S(=O)(=O)Oc1cccc(C(=O)Nc2ccc([N+](=O)[O-])cc2)c1", "Potency": "inconclusive: 20.6 µM [inhibitor, single point]"}, {"smiles": "N#C/C(=C\\c1cccnc1)C(=O)Nc1ccc(Cl)cc1", "Potency": "inconclusive: 11.6 µM [inhibitor, partial curve]"}, {"smiles": "NC(=O)C1=C[C@@H](c2ccc(C(F)(F)F)cc2)C[C@@H](OCc2ccc(CO)cc2)O1", "Potency": "inconclusive: 29.1 µM [inhibitor, single point]"}, {"smiles": "COc1ccc(C)cc1NC(=O)NC1CCCCCCC1", "Potency": "inconclusive: 23.1 µM [inhibitor, single point]"}, {"smiles": "C/C(=N/Oc1nc(C)cc(C)n1)c1ccc(Br)cc1", "activity change, negative = growth inhibition": "inactive: -8.05%"}, {"smiles": "O=C(Nc1cc(Cl)ccc1-n1cncn1)C1CC1", "activity change, negative = growth inhibition": "inactive: -3.59%"}, {"smiles": "CCCCNC(=O)C1(C)CCCCN1C(=O)c1ccc2c(c1)C(C)(C)CCC2(C)C", "note": "(centres undefined)", "Potency": "active: 3.66 µM"}, {"smiles": "O/N=C/c1cc(Br)ccc1OCc1ccc(F)cc1", "Potency": "inconclusive: 32.6 µM [inhibitor, single point]"}, {"smiles": "Cc1cc(=O)oc2cc(OC(C)C(=O)NC3CCN(Cc4ccccc4)CC3)ccc12", "note": "(centres undefined)", "activity change, negative = growth inhibition": "inactive: -4.91%"}, {"smiles": "O=C(COC(=O)C1CC2CCCC(C1)C2=O)NC(=O)c1ccccc1", "note": "(centres undefined)", "activity change, negative = growth inhibition": "inactive: -16.9%"}, {"smiles": "COc1cc(/C=C2/C=Cc3ccccc32)ccc1N(C)C", "Potency": "inconclusive: 35.5 µM [inhibitor, single point]"}, {"smiles": "CCOC(=O)C1=C(c2ccccc2)NC(SCC(=O)Nc2ccc(C)cc2)=C(C#N)C1c1ccco1", "note": "(centres undefined)", "Potency": "inconclusive: 29.1 µM [inhibitor, single point]"}, {"smiles": "CCOc1ccc(Nc2nc3ccccc3n3c(CC)nnc23)cc1", "Potency": "inconclusive: 20.6 µM [inhibitor, single point]"}, {"smiles": "CC(=O)NCCCC(=O)NN1C(=S)N(Cc2ccccc2)C(=O)C1CC(=O)Nc1cccc(C)c1", "note": "(centres undefined)", "activity change, negative = growth inhibition": "inactive: -6.02%"}, {"smiles": "CCOc1ccc(CN2CCN(CCCc3ccccc3)C(CCO)C2)cc1", "note": "(centres undefined)", "Potency": "inconclusive: 20.6 µM [inhibitor, single point]"}, {"smiles": "O=C(Nc1ccc(Br)cc1)C1CCN(S(=O)(=O)c2cccc3nsnc23)CC1", "Potency": "inconclusive: 18.4 µM [inhibitor, partial curve]"}, {"smiles": "COc1cccc(CC(NC(C)=O)C(=O)NC2CCN(S(=O)(=O)c3ccc(NC(C)=O)cc3)CC2)c1OC", "note": "(centres undefined)", "activity change, negative = growth inhibition": "inactive: -1.89%"}, {"smiles": "Cc1onc(-c2ccccc2)c1C(=O)N/N=C/C(Br)=C/c1ccccc1", "Potency": "active: 6.51 µM"}, {"smiles": "COc1ccc(NC(=O)c2sc3nc(C)cc(C)c3c2N)cc1", "activity change, negative = growth inhibition": "inactive: -1.29%"}, {"smiles": "Cc1ccc(N(C(=O)CS(=O)CC(=O)Nc2ccc(F)cc2)C(C)C(=O)NC(C)(C)C)cc1", "note": "(centres undefined)", "activity change, negative = growth inhibition": "inactive: -8.17%"}, {"smiles": "Cc1ccc2c(c1)N=C(c1ccc(Cl)cc1)CO2", "Potency": "inconclusive: 29.1 µM [inhibitor, single point]"}, {"smiles": "COc1ccc(-c2oc3ccc(-c4ccc5c(c4)OCO5)cc3c2-c2ccc(OC)nc2)cc1", "Potency": "inconclusive: 11.6 µM [inhibitor, partial curve]"}, {"smiles": "O=C(NCC(c1ccco1)S(=O)(=O)c1ccc(Cl)cc1)c1ccccc1F", "note": "(centres undefined)", "Potency": "inconclusive: 23.1 µM [inhibitor, single point]"}, {"smiles": "COc1ccc(CCNC(=O)c2nnc(Cc3ccc(Cl)cc3)o2)cc1OC", "Potency": "inconclusive: 16.4 µM [inhibitor, single point] and inconclusive: 29.1 µM [inhibitor, single point]"}, {"smiles": "O=Nc1c(-c2c(O)[nH]c3cc(Br)ccc23)[nH]c2ccccc12", "Potency": "inconclusive: 18.4 µM [inhibitor, single point]"}, {"smiles": "COc1cccc(NC(=O)CCCn2nc(C)c3c(C)n(-c4ccccc4)nc3c2=O)c1", "activity change, negative = growth inhibition": "inactive: -25.8%"}, {"smiles": "COCCNC(=O)c1cc2c(c(-c3cccc(C#Cc4ccc(OC)c(OC)c4)c3)n1)[C@@H](CCO)N(S(=O)C(C)(C)C)C2", "note": "(some centres undefined)", "Potency": "inconclusive: 18.4 µM [inhibitor, single point]"}]}]}
